Assay results as given in PubChem BioAssay AID686978 (National Center for Advancing Translational Sciences (NCATS), 2013).
The campaign covered roughly 420,000 compounds. About 64,000 (15%) were called active. Inconclusive means that the source gave no clear call. Such entries were picked first, then a sample of the others. Calls follow the shape of the dose curve; as a rule, active = well fitted inhibition curve with a large enough effect; inconclusive = small, poorly fitted or top-dose-only effect; inactive = flat fitted curve, though single readings scatter. No potency is given beside an inconclusive call; the fits are too rough.

test: qHTS for Inhibitors of human tyrosyl-DNA phosphodiesterase 1 (TDP1): qHTS in cells in absence of CPT; details: DT40 Tdp1-/- hTDP1 cells, no CPT, ATP luminescence, 48 h; activity change, negative = growth inhibition: at 46.2 µM (top of the series) unless noted; also: nearly all actives have a fitted effect of over 55% in size
Source text: Human tyrosyl-DNA phosphodiesterase 1 (TDP1) is a novel repair gene, and we propose to use it as a new target for anticancer drug development. TDP1 is not an essential protein, but under treatment with topoisomerase I poison (camptothecin: CPT), TDP1 works as a critical factor for cell survival. To directly identify novel TDP1 inhibitors active in a cellular environment, we have knocked-out the Tdp1 gene in chicken DT40 cells (Tdp1-/-) and generated a complemented counterpart cells that contains a stable transfection of the human TDP1 gene (Tdp1-/-;hTDP1 cells). For the primary screen, Tdp1-/-;hTDP1 cells will be exposed to small molecules in the presence or absence of CPT, and their growth kinetics will be evaluated after 48 hours by measuring ATP activity. […] The hit compounds will then be evaluated in the presence or absence of CPT using Tdp1-/- cells. […] In tertiary assays, biochemical gel-based assays will be used to assess whether the hit compounds specifically target TDP1.
To this end, we have screened this cell line against the MLSMR in two primary screens. In one screen we add CPT and in the other we screen in the absence of CPT; this AID represents the screen where CPT was absent.
NIH Chemical Genomics Center [NCGC]
NIH Molecular Libraries Probe Centers Network [MLPCN]
Assay Submitter (PI): Yves Pommier, NCI
DT40-hTDP1 cells without 20 nM Camptothecin (add 20 microL of DMSO in 1 L of cell culture medium) were dispensed at 400 cells/5microL/well in tissue culture treated 1536-well white wall/solid bottom assay plates (Greiner Bio-One North America, NC, U.S.A.) using a Multidrop Combi 8 channel dispenser (Thermo Fisher, Waltham, MA, USA). 23 nL compounds and controls were transferred using the pin tool (Kalypsys, San Diego, CA, USA) to the assay plates. The assay plates were then incubated at 37 masculineC for a minimum 48 hr. Three microL of Cell Titer Glo solution was added to the plates and incubated at RT in dark for 30 min. Luminescence was read using ViewLux (Perkin Elmer) with 1 sec exposure slow speed, high gain and 2x binning.
% is scaled to controls: 0 for no effect and ±100 for the full control effect; potency is read from the fitted curve at half-maximal effect; tags tell the direction and shape of the fitted curve.

Compound	activity change, negative = growth inhibition	Potency
COc1ccccc1NC(=O)c1oc2ccccc2c1NC(=O)c1ccco1	inconclusive: -33.6% [inhibitor]	
O=C(CSc1ccccc1F)NC(=O)c1ccccc1Br	inactive: -4.73%	
COc1ccc(N2CCN(C(CNS(=O)(=O)c3ccccc3)c3ccccc3)CC2)cc1 (stereo not drawn)		inconclusive [inhibitor, single point]
CC(C)NC(=S)NC(=O)/C=C/c1cccc2ccccc12	inactive: -29.1%	
Cc1ccc(NC(=O)COC(=O)c2cc(-c3cccs3)nn2-c2ccccc2)cc1[N+](=O)[O-]		inconclusive [inhibitor, partial curve]
CC(C)(C)CC(C)(C)c1cc(Cc2cc(C(C)(C)CC(C)(C)C)cc(-n3nc4ccccc4n3)c2O)c(O)c(-n2nc3ccccc3n2)c1	inactive: -1.9%	
Cc1ccc(O)c(N/C=C/C(=O)c2ccc(F)cc2)c1		inconclusive [inhibitor, single point]
CC(=O)Nc1ccc(NC(=O)C2(C)CC2(Cl)Cl)cc1 (stereo not drawn)		active: 18.4 µM
Cn1c(N)nc2nc[nH]c2c1=S		inconclusive [inhibitor, single point]
Cc1ccc(Cn2c(CCNC(=O)c3cccc(C)c3)nc3ccccc32)cc1		inconclusive [inhibitor, single point]
O=C(Nc1c2c(nn1-c1ccccc1)CS(=O)(=O)C2)C1CCCC1	inactive: -18.2%	
CC(Oc1ccc(Br)cc1)C(=O)N1CCN(c2ccccn2)CC1 (stereo not drawn)		inconclusive [inhibitor, single point]
COc1cc(/C=C(\C#N)C(=O)Nc2cccnc2)ccc1OC(C)C	inconclusive: -38% [inhibitor]	
COc1ccc2nc(-c3ccccc3)[nH]c(=O)c2c1	inactive: -10.6%	
COc1ccc(Cl)cc1NC(=O)CSC1=Nc2ccccc2C2=NC(CCC(=O)NCc3ccco3)C(=O)N12 (stereo not drawn)		inconclusive [inhibitor, single point]
Cc1c2c(c(C)n1C)C(C(=O)NC1CCCCC1)N(Cc1ccccc1)C2=O (stereo not drawn)	inactive: -21.3%	
COCCOC(=O)c1[nH]c2c(c1C)C(=O)CC(c1ccc(F)cc1)C2 (stereo not drawn)		active: 5.8 µM
Cc1cc2cc(CN(Cc3ccc4c(c3)OCO4)Cc3nnnn3C3CCCC3)c(=O)[nH]c2cc1C		active: 13 µM
CCN(CC)c1ccc(C(=S)N2CCN(c3ccccc3)CC2)cc1		inconclusive [inhibitor, single point]
CC(C)(C)n1nnnc1C1c2ccccc2C(=O)N1CCc1c[nH]c2ccccc12 (stereo not drawn)	inactive: -21.4%	
Cc1c(C)n(Cc2ccc(Cl)cc2)c2ccc(C(=O)NCCCN3CCOCC3)cc12		active: 18.4 µM
CCc1c(C)sc(NC(=O)C2CC2)c1C(=O)OC(C)C		inconclusive [inhibitor, single point]
Cc1nc2cnc(Oc3cccc(Cl)c3)nc2n(Cc2ccc(F)cc2)c1=O		inconclusive [inhibitor, single point]
Cc1ccc(NC(=O)c2ccc(CSc3ncnc4nc[nH]c34)cc2)c(C)c1		inconclusive [inhibitor, single point]
Cc1cccc(-c2cc(C(=O)Nc3ccc4c(c3)OCCO4)c3ccccc3n2)c1		active: 13 µM

Compound	activity change, negative = growth inhibition	Potency
COc1ccc(-c2nnc(SC(C)C(=O)NNC(=O)c3ccc(C)cc3)o2)cc1 (stereo not drawn)	inactive: -7.04%	
O=S(=O)(c1ccccc1)[C@@]1(c2ccc(Br)cc2)C[C@@H]2ON=C(c3cccc(Br)c3)[C@@H]2C1		active: 18.4 µM
Cc1c(-c2ccc(Cl)cc2)noc1C1CCN(CCc2ccccc2)CC1		active: 14.6 µM
Cc1ccc(S(=O)(=O)N2CCN(Cc3ccccc3Cl)CC2)cc1		active: 18.4 µM
COc1ccc(C(OCC(O)CNCCc2ccc(S(N)(=O)=O)cc2)c2ccc(OC)cc2)cc1 (stereo not drawn)		inconclusive [inhibitor, single point]
CCOC(=O)Cc1cc(=O)n2[nH]c(C)c(-c3ccccc3OC)c2n1	inactive: -7.28%	
Cn1c(=NC(=O)CCl)sc2ccccc21		active: 4.11 µM
COc1cccc2c1OC1(C)CC2NC(=O)N1c1cccc(C(=O)N2CCN(c3ccccn3)CC2)c1 (stereo not drawn)	inconclusive: -30.5% [inhibitor]	
Cc1ccc(Cl)cc1N1CCN(S(=O)(=O)c2cccc(S(=O)(=O)N3CCCC3)c2)CC1		inconclusive [inhibitor, partial curve]
O=C1CNC(=S)N1Cc1cccc(Cl)c1	inactive: -19%	
Cc1ccc(Cn2c(C(=O)O)c(CNCc3ccc(C)o3)c3ccc(C)cc32)cc1		inconclusive [inhibitor, single point]
Cc1csc(NC(C)c2nc3cc(Cl)c(N4CCCCC4)cc3n2CCOCCO)n1 (stereo not drawn)		inconclusive [inhibitor, single point]
Cc1cccc(NC(=O)CN2C(=O)C3(SCC(=O)N3c3ccccc3)c3ccccc32)c1 (stereo not drawn)		inconclusive [inhibitor, single point]
Cc1cccn2cc(-c3ccc(S(=O)(=O)N4CCOCC4)cc3)nc12		active: 16.4 µM
O=C(Nc1ccc(N2CCOCC2)cc1)C1CCCCN1S(=O)(=O)c1ccccc1 (stereo not drawn)		inconclusive [inhibitor, single point]
C=C(C)Cn1c(N2CCCC2)nc2c1c(=O)[nH]c(=O)n2C	inactive: -7.42%	
O=C(CSc1nc2ccccc2c(=O)n1CCCO)NCc1ccccc1	inactive: -7.75%	
COc1ccc(S(=O)(=O)N2CCCCC2)cc1NC(=O)c1ccc2c(c1)OCO2		active: 14.6 µM
O=C(NCCC1=CCCCC1)c1ccc2c(c1)sc1nc(-c3ccc(F)cc3)cn12		inconclusive [inhibitor, full curve, poor fit]
O=C(NCCc1ccccc1)c1ccc2c(c1)N(Cc1ccc(F)cc1)C(=O)CS2		active: 16.4 µM
CC1(c2ccc(OC(F)F)cc2)NC(=O)N(CC(=O)NC2CCCCC2)C1=O (stereo not drawn)	inconclusive: -30.4% [inhibitor]	
Cc1cccc(CC(=O)NCC(=O)NCc2cc(=O)n(C)c(=O)n2C)c1		inconclusive [inhibitor, single point]
Cc1ccc2c(c1)/C(=C/c1ccccc1F)C(=O)N2		inconclusive [inhibitor, partial curve]
CC(C)Cn1cc(NC(=O)NCc2cccc(Cl)c2)c2ccccc2c1=O		inconclusive [inhibitor, single point]
C#CCOCCOCCOCCNc1nc(N2CCN(C(=O)[C@H](CCCCN)n3cc(CN)nn3)CC2)nc(N2CCN(C(=O)[C@H](CC(N)=O)n3cc(C(N)[C@H](C)CC)nn3)CC2)n1 (stereo partly drawn)	inactive: 4.83%	

Compound	activity change, negative = growth inhibition	Potency
Cc1ccc(-c2csc(NC(=O)CSc3nc(C)cc(=O)[nH]3)n2)cc1		active: 18.4 µM
O=C(COc1ccccc1)NCc1n[nH]c(=S)n1-c1ccccc1	inactive: -8.9%	
CCN(CC)c1ccc(NC(=O)CN2CCN(CC(=O)Nc3ccc(Cl)cc3)CC2)cc1		inconclusive [inhibitor, single point]
O=c1oc(-c2ccc([N+](=O)[O-])cc2)nc2ccccc12	inactive: -23.9%	
COc1ccc(-c2cc(C(=O)NN3CCOCC3)c3ccccc3n2)cc1OC		inconclusive [inhibitor, full curve, poor fit]
COc1ccccc1CNC(=O)C1(C)CCN1C(=O)Cc1ccc(-c2ccccc2)cc1 (stereo not drawn)		active: 14.6 µM
CC(=O)c1ccc(N2CCN(C(=O)c3ccco3)CC2)c(F)c1		inconclusive [inhibitor, single point]
CC(=O)N1CC=C2C(C#N)=C(N)C(C#N)(C#N)[C@H](c3ccoc3)[C@H]2C1	inactive: -2.46%	
COCCNC(=O)/C(=C/c1ccccc1Cl)c1ccccc1		inconclusive [inhibitor, partial curve]
CC1(C)CC(=O)C2=C(C1)OC(N)=C(C#N)[C@@H]2c1ccccc1[N+](=O)[O-]		inconclusive [inhibitor, partial curve]
Cn1c(=O)c2c(ncn2CC(=O)N/N=C/C(Br)=C/c2ccccc2)n(C)c1=O		active: 3.66 µM
Cc1noc(NS(=O)(=O)c2ccc(N/C=C\C(=O)c3ccc4c(c3)OCO4)cc2)c1C	inactive: -23%	
CN(C)S(=O)(=O)c1cccc(NC(=O)COc2ccc(S(=O)(=O)N3CCOCC3)cc2Cl)c1		inconclusive [inhibitor, partial curve, poor fit]
CS(=O)(=O)c1ccc(C(=O)OCC(=O)NC(=O)NC2CCCCC2)cc1[N+](=O)[O-]		active: 4.47 µM
COc1cc(OC)c(C2CC(=O)Nc3ccc4ccccc4c32)cc1OC (stereo not drawn)		inconclusive [inhibitor, single point]
O=C(NCCCn1ccnc1)c1cc(-c2cccc(O)c2)on1	inactive: -13.3%	
Cc1cc(C)c(OCC(=O)N(C)CC(=O)Nc2ccc(N3CCOCC3)cc2)c(C)c1	inactive: -6.81%	
Nc1nc(N)c(N=O)c(OCC2CCCCC2)n1		active: 7.31 µM
Cc1cccc(-n2ncc3c(NCc4ccco4)ncnc32)c1		active: 11.6 µM
COc1ccc(NC(=O)c2ccc(-c3ccc([N+](=O)[O-])cc3)o2)cc1OC		active: 16.4 µM
CC(C)COC(=O)N1CCCCC1c1cc(C(=O)Nc2ccccc2)no1 (stereo not drawn)		inconclusive [inhibitor, single point]
O=C(CCOc1ccccc1)N1CCN(c2ccc(O)cc2)CC1		inconclusive [inhibitor, single point]
CCCOc1ccc(CN(C)c2ncnc(N)n2)cc1		inconclusive [inhibitor, single point]
